Data reported in PubChem BioAssay AID540317 (National Center for Advancing Translational Sciences (NCATS), 2011).
The whole screen tested about 390,000 compounds, of which about 2,200 (0.56%) were called active. This list was built around the results that the source calls inconclusive (neither active nor inactive); the mix of calls is not that of the screen. The call rests on the fitted dose curve; in most records, active means well fitted inhibition curve with a large enough effect; inconclusive means small, poorly fitted or top-dose-only effect; inactive means no such curve, though single readings can be large or run the other way. Potencies beside an inconclusive call are fits to weak or partial responses and may not hold up.

Biological target: Chromobox protein homolog 1 (Homo sapiens) (UniProt P83916)
Test: HTS for Inhibitors of HP1-beta Chromodomain Interactions with Methylated Histone Tails; further: nearly all actives have a fitted effect of over 70% in size
Conditions: AlphaScreen HP1-beta / biotin-H3K9me3 peptide binding; series mostly up to 114 µM; activity change, negative = inhibition: at the top concentration
Method in brief: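 Compound inhibition of the preformed complex between 50 nM HP1-beta and 50 nM biotinylated H3K9me3 peptide was read by AlphaScreen. Buffer was PBS pH 7.4 with 0.01% Tween-20. Incubations ran 30 min at room temperature, with 10 ug/mL donor/acceptor beads.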
Potency means the concentration at half of the fitted maximal effect; tags describe the fitted curve by direction and shape.

UniProt P83916, sequence (P83916 whole entry, looked up): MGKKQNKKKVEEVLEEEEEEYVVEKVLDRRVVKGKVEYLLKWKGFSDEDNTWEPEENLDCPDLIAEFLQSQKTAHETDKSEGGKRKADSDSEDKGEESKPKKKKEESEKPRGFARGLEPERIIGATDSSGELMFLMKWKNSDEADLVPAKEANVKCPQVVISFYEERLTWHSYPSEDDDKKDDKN

SMILES	Potency	activity change, negative = inhibition
COc1ccc(N2CCN(CC(=O)Nc3ccccc3C(=O)NCc3ccccc3)CC2)cc1	inconclusive: 44.7 µM [inhibitor, partial curve]	–
CCC(C)(C)c1ccc(Oc2ccc(N)cc2)cc1	inconclusive: 44.7 µM [inhibitor, partial curve]	–
CN(C)S(=O)(=O)c1cccc(-c2csc(N/N=C/c3ccco3)n2)c1	inconclusive: 28.2 µM [inhibitor, partial curve]	–
COc1ccc(-n2cnnc2SCC(=O)c2cc(C)n(Cc3cccs3)c2C)cc1	–	inactive: 2.53%
COc1cc(/C=C2\SC(=S)N(CCC(=O)N3CCN(C)CC3)C2=O)cc(OC)c1OC	inconclusive: 50.1 µM [inhibitor, partial curve, poor fit]	–
CC(=O)c1ccc(NC(=O)C2CCN(S(=O)(=O)c3ccc4c(c3)CCCN4C(=O)C3CCC3)CC2)cc1	–	inactive: 20.6% [at 57 µM]
Cc1noc(NS(=O)(=O)c2ccc(N/C=C\C(=O)c3cccc4ccccc34)cc2)c1C	inconclusive: 17.8 µM [inhibitor, full curve]	–
O=C(Cn1c(-c2cccs2)cc2cc(Cl)ccc21)NCc1ccccc1	–	inactive: 39.1%
CC1(C)OC(=O)C(=Cc2ccc[nH]2)C(=O)O1	–	inactive: 46.4%
CCOC(=O)c1sc(=S)n2c1[nH]c(=O)c1ccc(C(=O)OC)cc12	inconclusive: 10 µM [inhibitor, full curve]	–
Cc1ccc(S(=O)(=O)N/N=C/c2cccn2-c2ccc(Cl)cc2)cc1	inconclusive: 50.1 µM [inhibitor, single point]	–
CCCOc1cccc(C(=O)NC(=S)Nc2ccc(N3CCN(C)CC3)cc2)c1	inconclusive: 15.8 µM [inhibitor, partial curve]	–
N#Cc1c(-c2ccccc2)cc(-c2ccccc2)nc1SCCC(=O)O	–	inactive: -11.4%
CCOc1ccc(NC(=O)COC(=O)C2(C)CC2(Cl)Cl)c([N+](=O)[O-])c1 (stereo not drawn)	inconclusive: 44.7 µM [inhibitor, partial curve]	–
CN(CCc1ccccn1)Cc1ccc(Cl)cc1Cl	inconclusive: 56.2 µM [inhibitor, partial curve, poor fit]	–
CCOC(=O)c1sc2cc([N+](=O)[O-])cc(SCC(=O)OC)c2c1N	inconclusive: 44.7 µM [inhibitor, partial curve]	–
O=c1[nH]c(NNC(=S)NCc2ccccc2)nc2c1C1(CCCCC1)Cc1ccccc1-2	inconclusive: 20 µM [inhibitor, full curve]	–
Brc1c(-c2ccccc2)nc2n1Cc1ccccc1-2	inconclusive: 25.1 µM [inhibitor, partial curve]	–
CC(=O)c1ccc(N=Nc2ccc(N(C)C)cc2)cc1	–	inactive: -19.2%
COC(=O)CCCCCN1C(=O)/C(=C\c2ccncc2)SC1=S	inconclusive: 14.1 µM [inhibitor, full curve, poor fit]	–
CCCCCn1c(SCCC(C)C)nc2c1c(=O)[nH]c(=O)n2C	inconclusive: 12.6 µM [inhibitor, full curve]	–
CC(=O)Nc1cc(C(=O)NCc2ccccc2)ccc1Sc1ccc(C)cc1	–	inactive: -18.8%
COc1ccc(N2CCN(CC(O)COc3ccccc3C(C)(C)C)CC2)cc1 (stereo not drawn)	active: 20 µM	–

SMILES	Potency	activity change, negative = inhibition
CC(C)CCC(CCN1CCCC1)c1ccc2c(c1)OCO2 (stereo not drawn)	inconclusive: 63.1 µM [inhibitor, single point]	–
COc1ccccc1N1CCN(/N=C/c2cc(OC)c(OC)c(OC)c2)CC1	inconclusive: 28.2 µM [inhibitor, full curve, poor fit]	–
CN(C)c1ccc(C=c2c3cc(O)ccc3n3c2cc(-c2ccccc2)[n+]3C)cc1	active: 50.1 µM	–
O=C(Nc1nc2ccsc2c(=O)s1)c1ccco1	inconclusive: 50.1 µM [inhibitor, partial curve]	–
CSc1nn2c(C(F)(F)F)cc(C(F)(F)F)nc2c1C(N)=O	–	inactive: 50.3%
CCOCCCNC(=O)c1cnc2sc(N3CCCCCC3)nn2c1=O	inconclusive: 89.1 µM [inhibitor, single point]	–
COC(=O)c1ccc(NC(=O)C(=O)NCC2CCCO2)cc1 (stereo not drawn)	–	inactive: -8.82%
COc1ccc(-n2c(C)cc(/C=C/c3nc(O)c([N+](=O)[O-])c(=O)[nH]3)c2C)cc1	inconclusive: 50.1 µM [inhibitor, partial curve]	–
O=C(NCC1CCCO1)c1cc2nc(-c3ccco3)cc(C(F)(F)Cl)n2n1 (stereo not drawn)	–	inactive: 23.1%
Cc1cc(N2CCCC2)ccc1/C=C1\NC(=S)N(C)C1=O	inconclusive: 79.4 µM [inhibitor, single point]	–
CC(=O)Nc1ccc(NC2=C/C(=N/S(=O)(=O)c3cccs3)c3ccccc3C2=O)cc1	active: 50.1 µM	–
COc1ccc(C(=O)/C=C/c2ccc(N3CCCCC3)c([N+](=O)[O-])c2)cc1	active: 25.1 µM	–
CCCCOc1ccc(CNC(=O)Cn2ncn3c(cc4cc(F)ccc43)c2=O)cc1	–	inactive: 27.6%
Cn1nc(C(=O)N2CCN(c3ccccc3)CC2)c2c1-c1ccccc1SC2	inconclusive: 22.4 µM [inhibitor, full curve]	–
CN(C)c1ccc(N=Nc2ccccc2C(=O)OCC(=O)N(C)c2ccccc2)cc1	inconclusive: 12.6 µM [inhibitor, full curve]	–
Cc1ccc(C)c(N(CC(=O)Nc2cc(Cl)ccc2Oc2ccccc2)S(C)(=O)=O)c1	–	inactive: 6.15%
Cc1sc(NC(=O)C2CCCO2)c(C(N)=O)c1C (stereo not drawn)	inconclusive: 28.2 µM [inhibitor, partial curve]	–
CC(C)(C)C1=Nn2c(nnc2-c2ccccn2)SC1	inconclusive: 44.7 µM [inhibitor, single point]	–
CN(CCO)c1ccc(C=NNc2ccc([N+](=O)[O-])cc2S(=O)(=O)Nc2ccccc2C(=O)O)cc1	active: 44.7 µM	–
c1ccc(C[C@H]2CN=C(Nc3ccccc3)N2CCCC2CCCC2)cc1	–	inactive: 25.7%
COc1ccc(N2CCN(S(=O)(=O)c3cc(C)ccc3OC)CC2)cc1	inconclusive: 70.8 µM [inhibitor, partial curve]	–
NC(=O)c1c(NC(=O)c2noc3c2CCCC3)sc2c1CCCC2	inconclusive: 11.2 µM [inhibitor, full curve, poor fit]	–
CCN1CCCc2cc(CN(CCN3CCOCC3)C(=S)Nc3cccc(OC)c3)ccc21	inconclusive: 15.8 µM [inhibitor, full curve]	–

SMILES	Potency	activity change, negative = inhibition
COc1ccc2oc(=O)c(C(=O)NCCc3c(C)[nH]c4c(C)cccc34)cc2c1	–	inactive: -13.9%
CCOc1ncccc1C(=O)OCC(=O)Nc1cc(C)ccc1C	inconclusive: 7.08 µM [inhibitor, partial curve, poor fit]	–
CCN1c2ccccc2NC2N=C(OC)C(c3ccccc3)C21 (stereo not drawn)	inconclusive: 44.7 µM [inhibitor, partial curve]	–
O=c1/c(=C\c2cc([N+](=O)[O-])cc([N+](=O)[O-])c2O)sc2nc3ccccc3n12	inconclusive: 50.1 µM [inhibitor, partial curve, poor fit]	–
CC1CCN(c2c(NCc3ccc(C(=O)NCc4ccco4)cc3)c(=O)c2=O)CC1	inconclusive: 22.4 µM [inhibitor, full curve]	–
O=[N+]([O-])c1ccc(Cl)c(CN2CCCCCC2)c1	inconclusive: 56.2 µM [inhibitor, partial curve, poor fit]	–
O=C(Nc1ccccc1)c1ccc2nc(-c3ccco3)c(-c3ccco3)nc2c1	inconclusive: 15.8 µM [inhibitor, single point]	–
Nc1cc2c(cc1Br)-c1ccccc1C2=NO	inconclusive: 11.2 µM [inhibitor, partial curve, poor fit]	–
S=c1[nH]nc(-c2ccco2)n1/N=C/c1ccc(Cl)cc1	inconclusive: 44.7 µM [inhibitor, partial curve]	–
CCC(C)NC(=O)Cn1ncc2c(C)n(Cc3ccc(F)cc3)c(C)c2c1=O (stereo not drawn)	–	inactive: 15%
N#C/C(=C/c1ccc(N2CCCCC2)cc1)c1cccc(F)c1	inconclusive: 39.8 µM [inhibitor, partial curve]	–
CC12CCC=CC1C(c1ccc3ccccc3c1C=Cc1ccccc1)N(Cc1ccccc1)C2=O (stereo not drawn)	–	inactive: 0.409%
COc1cc(OC)c(NC2=CC(=O)C(=O)c3ccccc32)cc1Cl	inconclusive: 25.1 µM [inhibitor, partial curve]	–
O=c1[nH]c(=O)c2nc(-c3ccc(Cl)cc3)cnc2[nH]1	inconclusive: 89.1 µM [inhibitor, single point]	–
COc1cc(C(=O)Nc2sc3c(c2C(=O)O)CCC3)cc(OC)c1OC	inconclusive: 79.4 µM [inhibitor, partial curve, poor fit]	–
CCN(CC)c1ccc(NC(=O)COC(=O)CCC(=O)c2cccs2)cc1	inconclusive: 25.1 µM [inhibitor, full curve]	–
Cc1cccc(C(=O)NC(=S)Nc2ccccc2C(=O)O)c1	inconclusive: 56.2 µM [inhibitor, partial curve, poor fit]	–
CC1CCc2[nH]c3ccc(C(=O)N(C)CC(=O)Nc4ccc(F)cc4)cc3c2C1 (stereo not drawn)	inconclusive: 70.8 µM [inhibitor, partial curve]	–
CN1CCc2c(sc(/N=C/c3c[nH]c4ccccc34)c2C#N)C1	–	inactive: -34.6%
CCOc1cc(-c2nc(-c3ccccc3)c(-c3cc([N+](=O)[O-])ccc3C)[nH]2)ccc1O	–	inactive: -29.9%
Cc1ccc(S(=O)(=O)Nc2cc(C)c(O)c(Sc3n[nH]c(C)n3)c2)cc1	inconclusive: 89.1 µM [inhibitor, single point]	–
O=C(COc1cccc(Cl)c1)NNC(=S)Nc1ccccc1	inconclusive: 39.8 µM [inhibitor, single point]	–
